ChEMBL document CHEMBL4888484, “Replenishing the malaria drug discovery pipeline: Screening and hit evaluation of the MMV Hit Generation Library 1 (HGL1) against asexual blood stage Plasmodium falciparum ,using a nano luciferase reporter read-out” (2022)
The campaign covered roughly 4,800 compounds. About 420 (8.8%) showed an effect of 50% or more. The list shows a part of the results.

What follows are compounds tested on Plasmodium falciparum (assay: Confirmatory screen in NF54 nanoGlo assay, in single point, at 2uM, 72h). Settings: timepoint 72 hour.
Format: functional, Erythrocyte

Compared with `COc1cc(Cl)cc2c1OC=CC(C(=O)Nc1ncc(Cc3ccccc3)s1)=C2`, `Cc1cc(C)cc(NC(=O)Cc2nc(C)c(C(=O)NCc3ccccc3)s2)c1` is higher in “% Inhibition” value: -4% for the first, 0% for the second.

Compared with `Brc1ccc(Oc2ncc(CN3CCOCC3)s2)cc1`, `Brc1ccc2c(c1)CN(Cc1c[nH]cn1)CCO2` is higher in “% Inhibition” value: -2% for the first, 4% for the second.

Compared with `O=C(COc1ccccc1Cl)Nc1ccc(C2(c3ccc(NC(=O)COc4ccccc4Cl)cc3)c3ccccc3-c3ccccc32)cc1`, `c1ccc(C2=NN(c3ccc(-c4cc(-c5ccccc5)[n+](-c5ccccc5)c(-c5ccccc5)c4)cc3)[C@H](c3ccccc3)C2)cc1` is higher in “% Inhibition” value: 0% for the first, 94% for the second.

First: CCc1nnc(NC(=O)C2CC2c2ccccc2)s1 (configuration not stated)
Second: Cc1nnc(CC(=O)NC2CC(OCc3ccccc3)C2(C)C)o1 (configuration not stated)
The “% Inhibition” value of the first is lower: -3% for the first, 0% for the second.

Going from `Cc1ccc(C)c(N2CCN(c3ncc4c(=O)n(-c5ccc6c(c5)OCO6)c(=O)[nH]c4n3)CC2)c1` to `Fc1ccccc1N1CCN(c2c3c(nc4nc(Cc5ccc(Cl)cc5)nn24)CCCC3)CC1`, the “% Inhibition” value falls from 2% to -11%.

Going from `N#Cc1cncc(N2CCc3ccccc3C2)n1` to `N#Cc1cccc(-c2n[nH]c3c2CN(c2ccc(-c4ccccc4)nn2)CC3)c1`, the “% Inhibition” value rises from -1% to 85%.

Compared with `O[C@](C#CCN1CCOCC1)(c1ccccc1)C1CC1`, `O=C(CC1COCCN1C(=O)C1CCc2ccccc21)c1ccco1` (configuration not stated) is lower in “% Inhibition” value: 8% for the first, -16% for the second.

First: COC1(CNC(=O)C[C@H](O)c2ccccc2)CCC1
Second: COc1ccccc1CC(=O)NC[C@H](C)O
The “% Inhibition” value of the first is lower: -7% for the first, 5% for the second.

First: O=C(c1ccc(Cl)c(Cl)c1)C1CCN(C(=O)[C@H]2CCn3cncc3C2)CC1
Second: CN1CCCC(CN2C(=O)C3CCCN3C2=O)C1c1cccc(Cl)c1 (configuration not stated)
The “% Inhibition” value of the first is higher: 0% for the first, -13% for the second.

Going from `C[C@H](C(=O)NCc1cc(F)cc(F)c1)C1CCOCC1` to `CCc1ncoc1C(=O)NCC(F)(F)c1cc(F)cc(F)c1`, the “% Inhibition” value falls from -5% to -10%.

Compared with `CCn1cc([C@@H](O)C(F)(F)F)c(C)n1`, `CC(C)O[C@@H]1CCN(C[C@H](O)c2ccc(C(F)(F)F)cc2)C1` is higher in “% Inhibition” value: -4% for the first, 35% for the second.

Compared with `C[C@@H](c1ccccn1)N1CCC2(CCCCC2)CC1`, `O=C(N[C@@H](N1CCCCC1)C(Cl)(Cl)Cl)c1cccnc1` is higher in “% Inhibition” value: -8% for the first, 2% for the second.

First: COc1ccc2c(/C=C/c3cc[n+](C)cc3)cn(Cc3ccccc3)c2c1
Second: Cc1ccc(C(=O)C[n+]2cc(-c3ccc(-c4ccccc4)cc3)n(C)c2N)cc1
The “% Inhibition” value of the first is higher: 35% for the first, 4% for the second.

Compared with `O=S1(=O)N=C(NC[C@@H](O)Cc2ccccc2)c2ccccc21`, `Nc1c(-c2ccccc2)nsc1C(=O)NCc1ccccc1` is lower in “% Inhibition” value: 8% for the first, 3% for the second.

Going from `Cc1nn(CC(=O)NC2CC3CCC(C2)N3C)c2nc(C3CC3)cc(C(F)(F)F)c12` (configuration not stated) to `Cc1c(-c2cc(-c3cnn(C)c3C)n(CC(=O)NC3CCCCC3)n2)cnn1C`, the “% Inhibition” value rises from 3% to 5%.

Going from `CCCc1ccc(OCCNC(=O)C2CCCC2)cc1` to `O=C(NCCOc1cccc(F)c1)c1cccnc1NC1CCCC1`, the “% Inhibition” value rises from 0% to 6%.

Compared with `Cc1noc(C)c1CC(=O)N1C[C@H]2CCCC(=O)N(Cc3ccccc3)[C@H]2C1`, `O=C(CN1C(=O)[C@H]2CCCC2=Nc2ccccc21)NCCCc1ccccc1` is lower in “% Inhibition” value: -3% for the first, -13% for the second.

Compared with `CCOC(=O)N(c1ccccc1)[C@H]1CC(=O)N(c2ccccc2)C1=O`, `O=C(CN1C(=O)c2ccccc2C1=O)N1CC(=O)N2CCc3ccccc3[C@@H]2C1` is lower in “% Inhibition” value: 1% for the first, -1% for the second.

Compared with `CCCOC(=O)Nc1ccc(Br)cc1Br`, `COc1cc(N)c(NC(C)=O)cc1Cl` is higher in “% Inhibition” value: -2% for the first, -1% for the second.

Compared with `Cc1noc2ncc(C(=O)N3CCC[C@@H]3CC(C)(C)C)cc12`, `CC(C)(C)OC(=O)NC1CCCN(CC2CN(c3ccc(F)cc3)C(=O)O2)C1` (configuration not stated) is lower in “% Inhibition” value: -4% for the first, -8% for the second.

First: CCc1cc(C(=O)NCc2cn(C)nc2C)c2c(C3CC3)nn(-c3ccc(F)cc3)c2n1
Second: CCc1cc(C(=O)N(CC)c2ccccc2)c2c(C)noc2n1
The “% Inhibition” value of the first is higher: 3% for the first, -7% for the second.

Going from `Cc1ccc(-c2n[nH]c(NC(=O)Nc3ccc(F)c(S(=O)(=O)NC4CC4)c3)c2C)o1` to `C[C@@H](C(=O)Nc1ncc[nH]1)c1ccc2c(c1)[nH]c1ccc(Cl)cc12`, the “% Inhibition” value rises from -9% to 9%.

Compared with `CS(=O)(=O)N[C@H]1C[C@@H]2C[C@H]1N(C(=O)NCc1cccc(F)c1)C2`, `COc1cccc(CNC(=O)Nc2cc3c(cc2N2CCCCC2)n(C)c(=O)n3C)c1` is lower in “% Inhibition” value: 6% for the first, -8% for the second.

First: N#Cc1nccnc1NCCCCN1C(=O)c2ccccc2C1=O
Second: CCCCCn1c(NCc2cc(Cl)ccc2O)nc2ccccc21
The “% Inhibition” value of the first is lower: -11% for the first, 37% for the second.

First: CCOc1ccc(C(=O)N2CCN(c3nnc4ccccn34)CC2)cc1
Second: CCn1nccc1C(=O)NC1CCN(c2nnc3ccc(Cl)cn23)CC1
The “% Inhibition” value of the first is lower: -1% for the first, 0% for the second.

Compared with `COc1ccc(Cl)cc1S(=O)(=O)c1cnc(N2CCOCC2)nc1N`, `O=C(Nc1cccc(Cl)c1)c1ccc(-c2cnc(N3CCCC3)nc2)cc1` is higher in “% Inhibition” value: -2% for the first, -1% for the second.

Going from `O=C(NCc1ccc2c(c1)OCO2)C(F)(F)C(F)(F)C(F)(F)C(F)(F)C(=O)NCc1ccc2c(c1)OCO2` to `COc1ccc(S(=O)(=O)N(CC(=O)N2CCN(Cc3ccc4c(c3)OCO4)CC2)C2CCCCC2)cc1OC`, the “% Inhibition” value rises from -10% to -3%.

Compared with `CCCC1(CNC(=O)Nc2nc(CS(C)(=O)=O)no2)CC1`, `CCCN(Cc1cnn(C)c1)C(=O)NCc1ccc(C)nc1OC` is lower in “% Inhibition” value: -5% for the first, -12% for the second.

First: Nc1n[nH]c2ccc(C3OCCCO3)cc12
Second: O=C(Cn1cnc2cc3c(cc21)OCCCO3)Nc1ccc(F)cc1
The “% Inhibition” value of the first is lower: 2% for the first, 7% for the second.

First: Cn1cc(-c2noc(-c3ccc(C#N)cc3)n2)ccc1=O
Second: COc1ccc(N(C)S(=O)(=O)c2ccsc2-c2nc(-c3cccnc3)no2)cc1Cl
The “% Inhibition” value of the first is higher: 1% for the first, -5% for the second.

First: Cc1cc(Cl)ccc1S(=O)(=O)N[C@@H](C)C#N
Second: CCc1nnc2ccc(S(=O)(=O)Nc3ccc(Cl)cc3)cn12
The “% Inhibition” value of the first is lower: 0% for the first, 8% for the second.

First: Cc1ccc2c(-c3ccccc3)c(-c3nnnn3-c3ccccc3)cnc2c1
Second: Oc1ccc2ccccc2c1-c1nc2ncccn2c1Nc1ccc(Cl)cc1
The “% Inhibition” value of the first is lower: -20% for the first, 6% for the second.

Compared with `Cc1cccc(Oc2cc(N)cc(Oc3cccc(C)c3)c2)c1`, `Cc1c(Cc2c(Cl)cccc2Cl)c(=O)ccn1[C@@H](C)c1ccccc1` is lower in “% Inhibition” value: 1% for the first, -2% for the second.

First: CN1CCc2ncnc(Nc3ccc4nc(N5CCCC5)sc4c3)c2C1
Second: COc1cccc(N2CCN(C(=O)c3cc4c(s3)CCN(C(C)=O)C4)CC2)c1
The “% Inhibition” value of the first is higher: 2% for the first, -4% for the second.

First: CCn1nccc1CN(C)C(=O)c1cc(C)c(C)s1
Second: CCn1nc(C)c(CN(C)S(=O)(=O)c2ccc(N3CCCC3=O)cc2)c1C
The “% Inhibition” value of the first is higher: 5% for the first, -11% for the second.

Going from `CCOC(=O)c1c(C(F)(F)F)[nH]n2c(C(F)F)nnc12` to `Cc1[nH]n(-c2nc(C(F)(F)F)cc(=O)[nH]2)c(=O)c1CCO`, the “% Inhibition” value falls from -3% to -17%.

Going from `CCC1CCCCC1N1CCC(NC(=O)C2CCOCC2)CC1` (configuration not stated) to `O=C(NC1CCCC1)c1cnn2c3c(cnc12)CCCCCC3`, the “% Inhibition” value rises from -13% to 0%.

First: O=C(Nc1nccnc1C(=O)O)c1ccc(Cl)cc1
Second: O=C(Nc1ccccc1-c1nnc[nH]1)c1ccc(F)c(Cl)c1
The “% Inhibition” value of the first is higher: 4% for the first, -3% for the second.

Compared with `Cc1nn(Cn2cc(NC(=O)c3ccc(COc4ccc(F)cc4F)o3)cn2)c(C)c1Cl`, `COc1ccccc1N1C(=O)C2C(C)NC3(C(=O)N(Cc4ccc(F)cc4)c4ccccc43)C2C1=O` (configuration not stated) is higher in “% Inhibition” value: -6% for the first, 11% for the second.

Compared with `O=C(NCc1cccc(Cl)c1)[C@H]1CCCN(c2nc3cccnc3n(Cc3ccccc3)c2=O)C1`, `COc1cccc(S(=O)(=O)N2CCCN(Cc3ccncc3)[C@H](c3ccccc3)CC(=O)NCC2)c1` is higher in “% Inhibition” value: -6% for the first, 92% for the second.

Compared with `COc1cc(CC2CN(C(=O)c3cscn3)C2)cc(OC)c1`, `COc1ccc(C)cc1NC(=O)[C@H]1CCCN(c2cn[nH]c(=O)c2)C1` is lower in “% Inhibition” value: -6% for the first, -12% for the second.

Going from `N#Cc1cc(C(=O)Nc2nccc3sccc23)c[nH]1` to `N#Cc1ccc(O)c(NC(=O)c2snc(O)c2Cl)c1`, the “% Inhibition” value rises from -12% to -7%.

Going from `COc1ccc(S(=O)(=O)N(c2onc(C)c2Cl)S(=O)(=O)c2ccc(OC)c(OC)c2)cc1OC` to `COc1ccc(N=C2NC(=O)CC(=O)N2)cc1`, the “% Inhibition” value falls from -3% to -10%.

First: C[C@H](OC1CCCCCC1)C(=O)Nc1nc(C(N)=O)cs1
Second: CC(N)C1CCN(c2cncc(OCC3CCCC3)n2)C1 (configuration not stated)
The “% Inhibition” value of the first is lower: -20% for the first, -1% for the second.

Compared with `Cc1ccc(-c2noc(CCC(=O)NCC(C)C)n2)c(=O)n1C(C)C`, `Cc1ccc(C)n1[C@@H](CC(=O)O)c1ccco1` is lower in “% Inhibition” value: -2% for the first, -3% for the second.

Going from `O=S(=O)(c1ccc(CC(F)(F)F)cc1)N1CCOCC12CCC2` to `c1ccc(Oc2ccc(CNCc3nnc4n3CCCCC4)o2)cc1`, the “% Inhibition” value rises from -5% to 3%.

First: COC[C@@H](C)CNc1nc(C)cc(C)n1
Second: Cc1cccc(NC(=O)CC(C)(C)CC(=O)O)c1C
The “% Inhibition” value of the first is lower: -3% for the first, 0% for the second.

First: c1ccc(-c2noc(-c3ccc(NC4CCCCC4)nn3)n2)cc1
Second: Cc1ccc(C(=O)Nc2cc3c4c(c2)C2CCCC2CN4CC2CCCC32)cc1 (configuration not stated)
The “% Inhibition” value of the first is lower: 55% for the first, 60% for the second.

Going from `CN([C@H]1CCCc2c1cnn2C)S(=O)(=O)CCN1CCCC1` to `CCOC(=O)c1cnn(C)c1S(=O)(=O)N1CCCCC1`, the “% Inhibition” value falls from 1% to -5%.

Going from `CCNC(=O)NCCOC(=O)Cc1cc(Cl)cc2c1OCC2` to `Cc1ccc(N2CCN(C(=O)c3ccco3)[C@@H](C)C2=O)c(C)c1`, the “% Inhibition” value falls from 3% to -10%.

First: CC(C)(C)CC(C)(C)N1C[C@@H](C(=O)O)CC1=O
Second: COc1cccc2c(N3CC[C@]4(CNC(=O)C4)C3)nccc12
The “% Inhibition” value of the first is lower: -7% for the first, -4% for the second.
